Laboratory results published in PubChem BioAssay (NCATS).
This is one part of the list. These are further read-outs of the screen, such as a control signal, another cell line or another target. No call is given for them. The list favours compounds with an active or inconclusive main result. The note in brackets gives the kind of curve behind each potency; many fits are weak.

Test: qHTS Assay for Lipid Storage Modulators (AID 1519)
Details: Drosophila S3 cells, BODIPY lipid droplet/cell ratio, laser cytometry, cells loaded with oleic acid
Method in brief: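 Cells seeded at 5,000 per well were treated with compounds over a concentration series and loaded with oleic acid (400 uM, as added). Lipid droplet fluorescence (488 nm excitation, 500-530 nm channel) was read by laser-scanning cytometry and normalized to 20 uM Triacsin C.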

[1] = measured here: cell count channel max response
[2] = measured here: lipid (BODIPY) channel AC50
[3] = measured here: lipid channel max response
[4] = measured here: cell number channel AC50
Tags describe the fitted curve by direction and shape.

Row | SMILES | max response [1] [%] | AC50 [2] | max response [3] [%] | AC50 [4]
1 | COc1ccc(Oc2ncc3nc(-c4ccccc4)c(=O)n(C[C@H]4CCCO4)c3n2)cc1 | -4.25 | 39.8 µM [falling, single point] | -36.6 | –
2 | Nc1nc(NCCc2ccc(O)cc2)nc2nc(-c3ccco3)nn12 | 51.4 | – | 58.9 | 4.47 µM [rising, full curve, poor fit]
3 | CN(C)CC[C@@H](c1ccc(Cl)cc1)c1ccccn1 | 28.5 | 39.8 µM [rising, single point] | 41 | –
4 | CCNc1ncc2nc(-c3cccs3)c(=O)n(-c3ccccc3)c2n1 | -16.2 | 39.8 µM [falling, single point] | -38.4 | –
5 | COc1cccc(Nc2ncc3nc(-c4ccc(Cl)cc4)c(=O)n(CCC#N)c3n2)c1 | 59.4 | – | -6.51 | 6.31 µM [rising, partial curve]
6 | COC(=O)N1CCC2(CCCN(C(c3ccccc3)c3ccccc3)C2)CC1 | 19.8 | 11.2 µM [rising, partial curve, poor fit] | 31.6 | –
7 | COc1ccc(-c2nc3cnc(N4CCOCC4)nc3n(CCc3ccccc3)c2=O)cc1 | 12.9 | 0.794 µM [rising, partial curve, poor fit] | 6.54 | –
8 | O=C(Oc1ccccc1)N1CCC2(CC1)CCN(c1ccccn1)CC2 | -6.62 | 0.112 µM [rising, partial curve, poor fit] | -1.7 | –
9 | COc1ccc(NC(=O)N2CC3(CCN(C(=O)c4cnccn4)CC3)C2)cc1 | 13 | 0.0224 µM [rising, full curve, poor fit] | 23.2 | –
10 | COc1ccc(NC(=O)N2CCC3(CC2)CCN(C(=O)c2ccco2)CC3)cc1 | 12.8 | 3.16 µM [rising, full curve, poor fit] | 24.4 | –
11 | COc1ccc(Oc2ncc3nc(-c4cccs4)c(=O)n(Cc4cccs4)c3n2)cc1 | 27.2 | – | -0.352 | 0.282 µM [rising, full curve, poor fit]
12 | CC(C)NC(=O)N1CCC2(CC1)CCN(C(=O)c1cccn1C)CC2 | 21.4 | 15.8 µM [rising, single point] | 30 | –
13 | Cc1nc2cnc(Nc3ccccc3)nc2n(CCc2ccccc2)c1=O | 23 | 3.98 µM [rising, full curve] | 30.6 | –
14 | CN(C)CCN(Cc1cccs1)c1ccccn1 | 56.9 | – | 53.9 | 39.8 µM [rising, partial curve, poor fit]
15 | COc1ccc2[nH]cc(CCNc3ncnc4ccc(-c5ccccc5OC)cc34)c2c1 | -10.9 | 0.708 µM [rising, full curve] | -10.7 | –
16 | O=c1c(O)c(-c2ccccc2)oc2cc(O)cc(O)c12 | 28.3 | 39.8 µM [rising, single point] | 35.2 | –
17 | Cc1nc2cnc(N3CCOCC3)nc2n(Cc2cccs2)c1=O | 30 | 0.0282 µM [rising, full curve, poor fit] | 35.9 | –
18 | Cn1c(=O)c(-c2ccccc2)nc2cnc(OCc3ccccc3)nc21 | 13.4 | 1.41 µM [rising, full curve, poor fit] | 20.1 | –
19 | O=C(c1cccc(F)c1)N1CCC2(CCCN(c3ccc(-c4ccccc4)cc3)C2)CC1 | 32.9 | – | -50 | 3.16 µM [rising, partial curve]
20 | COc1ccccc1-c1nccc(NCc2cccs2)n1 | 25.8 | 3.16 µM [rising, full curve, poor fit] | 28.4 | –
21 | COc1ccc(C[C@H](N)C(=O)N[C@@H]2[C@H](O)[C@H](n3cnc4c(N(C)C)ncnc43)O[C@@H]2CO)cc1 | -13.6 | 12.6 µM [falling, partial curve, poor fit] | -41.6 | –
22 | Cc1cc(=O)oc2cc(O)c(O)cc12 | 10.9 | 3.16 µM [rising, full curve, poor fit] | 26.4 | –
23 | O=C(c1ccco1)N1CCC2(CCCN(Cc3ccccc3)C2)CC1 | 25.5 | 5.62 µM [rising, partial curve] | 32.8 | –
24 | N#Cc1cccc(-c2nc(Nc3ccccc3)c3ccccc3n2)c1 | 6.01 | 3.55 µM [rising, partial curve, poor fit] | 15.2 | –
25 | CN(C)c1ccc(-c2cc(NCc3ccccc3)ncn2)cc1 | -13.9 | 39.8 µM [falling, single point] | -32.7 | –
26 | O=c1[nH]cnc2c1ncn2C1CC(O)C(CO)O1 (configuration not stated) | 14.4 | 7.08 µM [rising, single point] | 19 | –
27 | Cc1noc(C)c1C(=O)N1CCC2(CC1)CCN(C(c1ccccc1)c1ccccc1)CC2 | 20.9 | 39.8 µM [rising, single point] | 36.5 | –

Row | SMILES | max response [1] [%] | AC50 [2] | max response [3] [%] | AC50 [4]
28 | Cc1cnc(CNc2ncncc2-c2cccc(NS(C)(=O)=O)c2)cn1 | 22.7 | 2.51 µM [rising, full curve, poor fit] | 27.9 | –
29 | CC(C)c1c(O)ccc2c1CCC1C(C)(C)CCC[C@@]21C (some centres not stated) | -10.1 | 31.6 µM [falling, single point] | -57 | –
30 | CN(C)c1nc(-c2ccccc2C(F)(F)F)nc2ccccc12 | 27.7 | 7.08 µM [rising, partial curve] | 33.2 | –
31 | COc1ccc(CNc2ccnc(-c3cccc(NS(C)(=O)=O)c3)n2)c(OC)c1 | 22.9 | 1.58 µM [rising, partial curve] | 30.2 | –
32 | C[C@]12CCC(=O)C=C1CCC1C2C(O)C[C@]2(C)C1CC[C@]2(O)C(=O)COC(=O)CCC(=O)O (some centres not stated) | 32.8 | 39.8 µM [rising, single point] | 45.4 | –
33 | O=c1c(-c2ccc(Cl)cc2)nc2cnc(N3CCNCC3)nc2n1-c1ccccc1 | 23.1 | 0.891 µM [rising, partial curve, poor fit] | 31.6 | –
34 | COCC(=O)N1CCC2(CCCN(C(=O)Nc3cccc(C#N)c3)C2)CC1 | 28.1 | 5.62 µM [rising, partial curve] | 38.2 | –
35 | CN(C)C(=O)c1ccc(-c2nccc(NCc3cccs3)n2)cc1 | 10.8 | 0.794 µM [rising, full curve] | 16.8 | –
36 | N#CCCn1c(=O)c(-c2cccc(C#N)c2)nc2cnc(Oc3ccccc3)nc21 | 3.76 | 0.126 µM [rising, full curve, poor fit] | 3.78 | –
37 | COc1ccc(Oc2ncc3ncc(=O)n(Cc4cccc(OC)c4)c3n2)cc1 | 16.9 | 0.1 µM [rising, full curve, poor fit] | 27.3 | –
38 | CN(Cc1ccco1)c1cc(-c2cccc(C#N)c2)ncn1 | 26.9 | 1.78 µM [rising, full curve] | 36.5 | –
39 | COc1ncc2nc(C)c(=O)n(C)c2n1 | 22.9 | 1.58 µM [rising, full curve, poor fit] | 28.8 | –
40 | O=c1c(CCc2ccccc2)nc2cnc(N3CCOCC3)nc2n1-c1ccccc1 | 19.4 | 0.891 µM [rising, full curve, poor fit] | 23 | –
41 | CC1C(=O)OC2CC34C5CC(C(C)(C)C)C36C(OC(=O)C6O)OC4(C(=O)O5)C21O (configuration not stated) | 1.35 | 12.6 µM [rising, single point] | 2.63 | –
42 | O=[N+]([O-])c1ccc(CSc2ncnc3c2ncn3[C@@H]2O[C@H](CO)[C@H](O)[C@H]2O)cc1 | 44.1 | 3.16 µM [falling, full curve, poor fit] | 44.7 | –
43 | O=C1OC(C(O)CO)C(O)=C1O (configuration not stated) | 25.4 | 15.8 µM [rising, partial curve, poor fit] | 37.6 | –
44 | CC(=O)N1CCC2(CC1)CCN(c1ccccc1)CC2 | 28.6 | 39.8 µM [rising, single point] | 36.8 | –
45 | Cc1cc(C)c(S(=O)(=O)Nc2cccc(C(F)(F)F)c2)c(C)c1 | 20.6 | 3.98 µM [rising, full curve] | 32.2 | –
46 | COc1ccc(CNc2ncncc2-c2ccoc2)c(OC)c1 | 22.5 | 0.316 µM [rising, full curve, poor fit] | 27.3 | –
47 | COc1ccc(-c2nc3cnc(N4CCOCC4)nc3n(Cc3cccc(OC)c3)c2=O)cc1 | 26.4 | 0.224 µM [rising, full curve, poor fit] | 34.1 | –
48 | O=C(c1csnn1)N1CCC2(CCCN(c3ncccn3)C2)CC1 | 13.6 | – | 21.9 | 5.01 µM [rising, partial curve]
49 | O=c1c(-c2ccccc2)nc2cnc(N3CCNCC3)nc2n1Cc1cccs1 | 10 | 1.58 µM [rising, full curve, poor fit] | 17.3 | –
50 | O=c1c(-c2cccs2)nc2cncnc2n1C1CC1 | 26.4 | 0.1 µM [rising, full curve, poor fit] | 35 | –
51 | CCNc1ncc2nc(-c3ccccc3)c(=O)n(C)c2n1 | -43.3 | 39.8 µM [falling, single point] | -57.6 | –
52 | COc1cc(C(=O)NCc2ccc(OCCN(C)C)cc2)cc(OC)c1OC | 16.6 | 12.6 µM [rising, partial curve, poor fit] | 31.5 | –
53 | CCC(=O)O[C@H]1C(O[C@@H]2C(C)[C@H](O[C@H]3C[C@@](C)(OC)C(O)C(C)O3)C(C)C(=O)OC(CC)[C@@](C)(O)C(O)[C@H](C)C(=O)C(C)C[C@]2(C)O)OC(C)CC1N(C)C (some centres not stated) | 11.3 | 0.708 µM [rising, partial curve] | 33.5 | –
54 | Clc1ccccc1-c1cc(NCc2ccccc2)ncn1 | 12.3 | 7.08 µM [rising, single point] | 14.9 | –
